Some of the results follow. The list includes weakly bound sequences.
target: MaxL homodimer (UniProt P61244); experiment: universal protein-binding microarray (PBM); details: PBS-based mixture, 10 nM His-tagged protein dimer, 2% milk, 200 ng/uL BSA, 50 ng/uL salmon testes DNA, 0.02% TX-100; detection with Alexa 488 anti-His …; high values mean tight binding; most listed sequences are background and not binding sites; double strand, one strand shown
Sequence of UniProt P61244 (P61244 whole entry): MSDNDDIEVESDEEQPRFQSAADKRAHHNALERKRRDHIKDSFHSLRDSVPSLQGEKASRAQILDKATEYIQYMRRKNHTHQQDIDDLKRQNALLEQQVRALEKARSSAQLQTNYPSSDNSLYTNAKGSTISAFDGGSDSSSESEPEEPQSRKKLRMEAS

Sequence	binding signal (normalized occupancy)
GGCATAGA	0.0757
GTGGACCA	0.0775
CTTCCGAA	0.0715
GTCGTACA	0.0761
CACTTCCG	0.0703
AATGACAA	0.0791
CCTTTAAC	0.0699
AGAGTCTC	0.0681
AACTGGCT	0.0689
AGTCTGTG	0.0705
AGGTTGGG	0.0722
AGATATAT	0.0885
CTAGGCAG	0.0705
GCATAGTA	0.0788
GCGGGACA	0.0728
AACGACCT	0.0734
AGTGTTGA	0.0724
CGTCATGC	0.0901
AACACGTG	0.706
GCTCCACA	0.0778
AATGGAGC	0.0753
ACCTACAA	0.0732
CTAGCTGC	0.0705
AACGACCG	0.0713
CATTTTTA	0.0776

Sequence	binding signal (normalized occupancy)
AGGGAGAG	0.0771
ATATGCGA	0.0834
CACGCAGG	0.0845
AAGACCCG	0.0707
AATTTATA	0.0795
GACTGCCC	0.0688
CTATTTCA	0.0817
AACCTTGC	0.0728
GCAGATCC	0.0742
GTTTTATA	0.0785
CGCTGCGA	0.0718
ATGTATGC	0.0851
CGAACTGA	0.07
AGCTCACT	0.0712
ACTGGCTC	0.0665
AAGGCTCG	0.0689
AGTCTTGC	0.0751
ACTTCCTA	0.0759
CAGGCAGA	0.072
AGTTTATG	0.0741
AAGGAGCG	0.0653
GTTAGCCA	0.0713
CTTCTCTA	0.0722
AAACGGTA	0.0728
ATGGCGTG	0.0949

Sequence	binding signal (normalized occupancy)
AGATTTCA	0.0771
AGACGACA	0.0751
CAGGAGGC	0.0691
CTAGAACC	0.0725
GCTGCCAA	0.0702
AGTTTCAG	0.0706
ACAACTAT	0.0777
AGTCTCGG	0.069
ACAGTATG	0.0832
AAGGGGGC	0.0846
ACAATTAT	0.0791
ATGTGAGG	0.0857
GTATCTAA	0.0851
ATCAGTTC	0.074
AGTTTTTA	0.0727
CCTGGCAG	0.0749
GATTTGGA	0.0764
CCTTACAA	0.076
AGCTGGTA	0.0693
CGCTGGCA	0.0704
ACTGGACG	0.0706
CCACCGAA	0.0733
GCGGGAGA	0.0717
TACTCTGA	0.0744
TCACGGCA	0.0772

Sequence	binding signal (normalized occupancy)
ACAATCAA	0.0715
AGGAGTCG	0.0717
AACTGTAC	0.0732
TATCACAA	0.0816
TACCCCGA	0.0798
CGCTCGCC	0.068
ATAACTTC	0.0741
GGTTATTA	0.0851
AACGGCTT	0.0645
GCAGTGAA	0.0712
CAAGCCCC	0.0757
ACTTCACC	0.0731
CATTACGG	0.0774
AATATAGC	0.0773
AGTCCATG	0.0832
CCGACGAG	0.0722
GAACAAGC	0.0732
CGATGTTC	0.0738
GCAGCTAC	0.0676
AGGTGCGC	0.0791
CCGACTAG	0.066
AGCCCTCG	0.0704
CATCGTAG	0.0759
CGCATTCA	0.0752
AAAAGGTC	0.0695

Sequence	binding signal (normalized occupancy)
ACAGGCGG	0.0721
ATCCAATC	0.0772
ACTTTGCA	0.0659
ATCGACTC	0.0757
AGCGAACT	0.0724
TGACGAAA	0.0758
AGTTTATA	0.0789
ATCTTCGG	0.0708
TCATTCAA	0.0767
TACCAGGA	0.0658
CCGAGATC	0.0743
GACCGTCC	0.0646
TGGACGAA	0.0798
GAAGCGTA	0.0738
CATTGCGC	0.0734
CGAGCGGA	0.0706
AGAAACCC	0.0744
ATGACATA	0.0825
ATAACGAT	0.086
GGCTTGAC	0.0653
TGAACCCA	0.0723
GACCTCGC	0.0775
ATTAGTCC	0.0724
ACGCAAAA	0.0723
AAGCGAGC	0.0682

Sequence	binding signal (normalized occupancy)
CCTCTGTA	0.0784
GTGGTTAA	0.0835
TCCATTAA	0.0794
CGCCACAC	0.0801
GACGTGAC	0.0813
CAACGCCG	0.0717
GCGTTAGC	0.0715
GGATTTAA	0.0755
GTCCACCA	0.0733
CGGTCGAG	0.0699
GTCCGGTA	0.071
ACAGAAGC	0.0727
TCAAGAAA	0.0721
ACCGTGGA	0.0797
CAACCGGA	0.0694
GGAATCCC	0.0772
AGACGAGG	0.0703
TATTAGAA	0.079
GGCTAAAC	0.0727
ACCTGCCA	0.0764
ACCCGCAT	0.0833
ACCAAACT	0.0718
CGGCAAAA	0.0703
TGAGTGCA	0.0772
AAGGGGCA	0.0735

Sequence	binding signal (normalized occupancy)
AAAACAGA	0.0783
AGGGTGCG	0.079
TACTGTAA	0.0705
AAGTCTGC	0.0709
GCAAAGGC	0.0715
TCGGCCGA	0.0637
CAGCTTCG	0.0662
GAAGGAAA	0.0768
GTCAGGCA	0.0719
CGTTACCA	0.0889
TCTACCAA	0.0675
ACTCAGCT	0.0711
CCCGGCTA	0.0649
ATTGCAGG	0.0733
CCTGCGAA	0.0754
ATAACGAG	0.0783
CGTCCAGA	0.0743
CTCTAATC	0.073
CTCCCCAA	0.0813
CCTCCCTC	0.0739
CGTCTTCC	0.0739
ATATTTGA	0.0793
AGTCTCTC	0.0744
ATCACACC	0.0866
GGTATAGA	0.0818

Sequence	binding signal (normalized occupancy)
AGCAAATC	0.0719
AGACACCG	0.076
AGTCAGAC	0.0684
ACCCCGAA	0.0791
ATCTATGC	0.0811
GTACCGGA	0.0709
ACCTTGAT	0.0788
TCGTAGAA	0.0759
AGCGATGA	0.0739
AGTGTAGG	0.0737
AACGCGGT	0.0808
GAAGTGTA	0.0751
AGGATCGA	0.0757
TCATTCGA	0.0781
CCGCATTC	0.072
ATAAGCAT	0.0819
AACAGGCT	0.0748
AGTGATCG	0.0765
ATTGTGCG	0.0787
AGAGTATG	0.0745
TAGCTAGA	0.0689
ACGGCTAC	0.0676
CTCTATGA	0.0732
CGGGCTAG	0.0706
GCTAAGCA	0.07

Sequence	binding signal (normalized occupancy)
TGAGGCCA	0.0736
CCGTATAG	0.0757
TCACTTCA	0.0761
GTGAGGGA	0.0752
ATGAGGTA	0.0789
AGCATGGA	0.1
GCGGCAAA	0.0701
AAAACCGA	0.0688
GTGTCTAA	0.0779
AGAGCCTC	0.0723
CATATAGG	0.0875
AAACATGG	0.0874
CTCGCCCC	0.0701
CAACCATA	0.0837
CGTCCTGA	0.069
CTATCTAC	0.0757
ATGTTAAT	0.0787
CCCGAGGA	0.0728
ATCAACAC	0.0825
ATTGTTAC	0.0769
CGCGATCC	0.0768
CTTGGCTC	0.0739
GCCATCTA	0.0757
TACTACCA	0.0762
AAATCCCA	0.0748

Sequence	binding signal (normalized occupancy)
ACGCGGCT	0.081
GAGATTCC	0.0754
ACCCATTG	0.0802
CAGGGGCA	0.0738
GCCTGGCC	0.0671
TATATGGA	0.0939
AATTAAAG	0.0785
ATCGGTCA	0.0748
GGCCCAAC	0.072
ACGATAGA	0.0814
GCGGGAGC	0.066
ATGGCCAA	0.0741
CCCTACAG	0.075
ATGTCGCC	0.0839
GACGGTGA	0.0751
AATATTAC	0.0808
ATGCGCCA	0.0906
GGAGGAGA	0.0745
GCCGCTTA	0.0707
AATCCTTA	0.0733
CAAACTGA	0.0723
TACCTTAA	0.072
CGCAAGGA	0.0798
CGGCACAC	0.0795
ACCTGAGC	0.0767

Sequence	binding signal (normalized occupancy)
TCTGCAGA	0.0722
GAAAGGAC	0.0662
CCTAAGGC	0.0706
GAATACTA	0.0855
AAACGTAT	0.0746
AAGAGGCG	0.07
CATTTCGA	0.0759
CTCCGAAC	0.0676
CGCAAATA	0.0708
ACCATCAC	0.0836
GCACTGAA	0.0723
CGGATAGC	0.0762
CCGTATTC	0.0748
AAAAGCAT	0.0791
CATGACGG	0.0797
CCCAGGAC	0.0694
ACTTGGTA	0.0735
CTGGACTA	0.072
CAGCTGCC	0.0686
GGGCATAC	0.0778
AGACTAGA	0.075
CCTACAAG	0.0711
CTGTGATA	0.0741
GTCCTCGA	0.0717
GTCATGAA	0.0778

Sequence	binding signal (normalized occupancy)
AACTCCAT	0.0767
ATCTTTAG	0.0754
ATACAAAC	0.0743
GCGCCTAC	0.0735
ATAAATAG	0.0754
CAGGAGAA	0.0737
AATAGCAG	0.0748
CAATGAGA	0.079
ACCTGGAT	0.0753
TTGACAAA	0.0738
TATGACAA	0.0803
CAGCTCTC	0.0656
AGACGATC	0.0732
GAAGCCAA	0.0689
AAAGTAAG	0.0712
GACACCGA	0.0769
CCTACCAC	0.0813
GAAAGAGA	0.0724
CGGGTAAG	0.0738
CCGAGGAC	0.0697
AACAACCC	0.0789
AACTGGAC	0.0692
ATACTTGG	0.0799
GACAATGA	0.0791
CTACCTAG	0.0747

Sequence	binding signal (normalized occupancy)
GCTTCCCC	0.0787
AATAGGGC	0.0746
AGCCGGAC	0.0649
CCAGGGCG	0.0667
GTCAAAAA	0.0705
CCTAGCTA	0.0749
AGCCTAAT	0.0727
AACGATAC	0.0816
AAGTCTTA	0.0766
CACTGACC	0.0728
AGTGCTGC	0.072
AGAGGTAG	0.0697
AACTCCAC	0.0767
ACTCTGTG	0.0707
CGACCCAA	0.0727
CCATAATC	0.0823
CGAGTGGA	0.0775
ACACCGCT	0.0738
CTCGACGC	0.0751
AATACGAT	0.0801
CCTAACGA	0.075
GAGAGACC	0.0677
CAAGTAAG	0.0749
AAATGGGG	0.0777
CTGTCTTA	0.0726

Sequence	binding signal (normalized occupancy)
ATCTTGAG	0.0774
TCCTCAAA	0.0768
AGGTGACC	0.0766
ATCGAACA	0.0764
CCACCCGG	0.0772
GCACCAGA	0.0705
TATGATCA	0.0795
CGTTGGAA	0.0835
CTACCACA	0.0867
ATGTAAAG	0.0767
ACCACTAC	0.077
GCCTAAAA	0.0696
CAACTTCC	0.0736
GGGTCGTA	0.0757
CGGTGGAG	0.0737
AAAATTAG	0.0735
GATCTAAC	0.0787
CACTTGAC	0.077
CCATCGCC	0.0714
